Measurements reported in the supplement of paper PMC11417369.
± gives the standard deviation of the averaged measurements. The list shows a part of the results.

system: PfAP2-I AP2 domain 3 (GST-tagged); experiment: gcPBM binding intensity (ln(normalized median fluorescence intensity)); higher = stronger DNA binding
Summary of the method: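 GST-fused DNA-binding domains of P. falciparum, expressed in E. coli, were applied at about 25 μg on average for 1 h to an Agilent 4 × 180k array of primer-extended double-stranded 36-bp intergenic genomic probes and negative controls. Binding intensity is the highest Masliner-normalised natural-log median intensity across replicate spots of either probe orientation, measured with Alexa488 anti-GST antibody and a 488 nm scan.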

Row | Sequence | gcPBM binding intensity (ln)
1 | TTATTCTAAAAGTGTTTGCACTTTTATAATCATATA [GTGCAC_site9929] | 9.44 ± 0.38
2 | TATACAGATAAATACACACACACATATATATATATA [CACACA_site4845] | 9.38 ± 0.4
3 | CATATGTATTTATTCACACATATATATATATATATA [CACACA_site4207] | 9.36 ± 0.57
4 | AATACATTTATGAGCTGTACACATTTATTTGAGCTA [XGTACX_site7695] | 7.95 ± 0.057
5 | ATATATATTAATATTTGTACATAAAATTATTTCAAT [XGTACX_site5364] | 7.97 ± 0.53
6 | AAAGTAACACACTAATATTTTAACAAATAATATATA [GTGCAC_negctrl_site132] | 7.7 ± 0.23
7 | AGTGTAATTTTCCACTGTACTTTTCTTGTATATAAT [XGTACX_site4201] | 8.26 ± 0.27
8 | TCTTAAAATCGGAAATGAAATAAAGTTTACAATATG [TGCATGCA_negctrl_site553] | 7.58 ± 0.69
9 | TGATTCTGTCATGGTGCACACCAGAACCATTATAAA [CACACA_site1965] | 10.3 ± 0.41
10 | TGTTTAATCACATGTTTGCACTTTCCTTTTGTAAAT [GTGCAC_site9893] | 9.45 ± 0.16
11 | ATATATAAATATATATGTACACACATATACATGTTG [XGTACX_site6653] | 7.76 ± 0.38
12 | AATTATTCTATATATTGTACATGTTTGTTTTTTTTT [XGTACX_site3130] | 7.75 ± 0.56
13 | TAATATATATTATTATGTACATATATTGATTCCTTG [XGTACX_site6830] | 8.11 ± 0.35
14 | TATTTATTAATATGTACACACATCAACCATATTAAC [CACACA_site7001] | 8.01 ± 0.35
15 | CCAAAATACATTAAACGTACATGTCCTAATAAGATA [XGTACX_site21] | 7.83 ± 0.25
16 | TTCTTATATATATACACACACAAAATATCTACAATG [CACACA_site736] | 7.99 ± 0.51
17 | TTGTTTTTATAAATATTATTACAATGAAAAAAAAAA [TGCATGCA_negctrl_site185] | 7.79 ± 0.52
18 | AATCTGATCTTTTAAAGTACACAAAAAAAAAAAAAA [XGTACX_site115] | 8.04 ± 0.4
19 | AGGTTATAAATAAATACACACATACAAAAATATGAC [CACACA_site4773] | 7.75 ± 0.63
20 | AAAAAAAAAAAAAAAAGTACGTATCAAAGCATCAAA [XGTACX_site880] | 8.75 ± 0.49
21 | CATATATATATATGTACACACATTAATAAAAAAAAA [CACACA_site3230] | 7.96 ± 0.3
22 | GTTTAACTGTTTTATACACACAATGTATACAATAAA [CACACA_site2959] | 7.83 ± 0.55
23 | AATGAACACCTAAAATGTACGTACAAATATATTTTA [XGTACX_site7067] | 7.99 ± 0.45

Row | Sequence | gcPBM binding intensity (ln)
24 | TTTGAGTGCACATACACACAGACATACATTTAAATA [CACACA_site3403] | 10.6 ± 0.56
25 | ATGTTTAATTTTTTTTTGTCCCTATAGAAGTGTCAA [CACACA_negctrl_site1103] | 7.82 ± 0.6
26 | AATGAATAAATAAACACACACACATATATAAATATG [CACACA_site6160] | 7.93 ± 0.43
27 | AAAACAAACAGACACACACACATATATATATATATA [CACACA_site3655] | 9.41 ± 0.52
28 | TTTAAAATTTTTTTTTTTTTTTTTTTTTTTTTTTAT [TGCATGCA_negctrl_site213] | 7.26 ± 0.39
29 | ATATAAATATGTTCTGCACACAAATAAGTGTTTGAA [CACACA_site9291] | 8.57 ± 0.37
30 | ATAACCTAATAATACACACACATGAATATATAGAAT [CACACA_site963] | 8.04 ± 0.35
31 | ATAAATAATAAGGTTACAACAAACACACAAAGGAAT [XGTACX_negctrl_site611] | 8.46 ± 0.64
32 | GGTTATAACCCACATGCACACGTAAATAAATATTAT [CACACA_site5992] | 8.77 ± 0.3
33 | TGTCCAATTTATTGTGCACACCTCAAAAGTGGGTAA [CACACA_site3826] | 10.8 ± 0.28
34 | TAAAAAAAAAAGTATACACACTTCTTAATGTCAACA [CACACA_site4818] | 7.36 ± 0.46
35 | TTTTTTTATAAATTCACACAAAATATAATATTAAAA [CACACA_site4766] | 7.58 ± 0.46
36 | CTATATATTTTTCATTGTACACAAATTAAAGAAAAA [XGTACX_site8385] | 8.105 ± 0.064
37 | AATGTCATCATATTCATATATATTTATTTCTTTTTG [GTGCAC_negctrl_site500] | 7.68 ± 0.57
38 | ATGATGGAATATTCTACACACAATTAATAAACAAAC [CACACA_site1045] | 8.04 ± 0.78
39 | ATATAATCCTTTCAAACACACAAAATATAATTAATA [CACACA_site1829] | 7.76 ± 0.54
40 | GATGATACACAGGTGTTGCACTTAAATGCAGTTCTT [GTGCAC_site9627] | 9.4 ± 0.28
41 | ATTAAAATAGAAAAAAAAAAAAAAAAAAAAAAAAAA [CACACA_negctrl_site1117] | 8.29 ± 0.58
42 | TATGGGGAACTATAATGTACGTATTCCTCATATATA [XGTACX_site338] | 8.01 ± 0.27
43 | TTTTCAAAATGTTGTACACACAAAAAAAAAAAAAAA [CACACA_site1550] | 8.31 ± 0.38
44 | TTGTATTGTATATGCACACATAGAACACTTTTTTTT [CACACA_site4133] | 9.03 ± 0.49
45 | TAAATTTTGTTTAGCACACACACATACATACATACA [CACACA_site3155] | 9.03 ± 0.65
46 | TTGATATACTATGACACATGCAAATAAAACATTATA [TGCATGCA_site535] | 8.03 ± 0.52

Row | Sequence | gcPBM binding intensity (ln)
47 | TAATCATTTTTAAATTGTACAATTTATATAATAAGT [XGTACX_site6081] | 7.92 ± 0.24
48 | TATATCTGTATCATTACACACATGTATACTTATTTG [CACACA_site6134] | 7.7 ± 0.66
49 | TACCTATATACATACACACACATATAACCAATGTAG [CACACA_site7096] | 8.03 ± 0.39
50 | AGAAGATTAAAAATTGCACACAAAAATATATTTTCT [CACACA_site8359] | 8.27 ± 0.42
51 | TAATAAATAAAAACATGTACATATATACATATATGT [XGTACX_site485] | 7.75 ± 0.36
52 | AAAGACTTTTTATGAGCACACACATATATTATGGAG [CACACA_site8254] | 8 ± 0.63
53 | GATATATAGGTATTTACACACAATGTGAGATCTATA [CACACA_site7575] | 7.79 ± 0.47
54 | TGATAATAAGCATACACACACACACTAAAAAAAAAA [CACACA_site6478] | 8.16 ± 0.47
55 | ATGATTATACAAAATATACACACGTGGACACAAATA [CACACA_site8304] | 8.22 ± 0.66
56 | TTTCTATAATATATATGTACATATATAATATGTCGT [XGTACX_site3676] | 7.74 ± 0.41
57 | AGATAAAATAAATACACACACATAAATACGTACAAA [CACACA_site4739] | 8.23 ± 0.099
58 | TAAAGATGTATTTATTCACACATCTCATATAATGAA [CACACA_site5229] | 7.41 ± 0.49
59 | TTATGTATCCTTATAAGAAAAAAAAAAAAATTCTCT [CACACA_negctrl_site1183] | 7.5 ± 0.5
60 | AATAAAAATATAGGCACACATATTAAAATGAACTTA [CACACA_site830] | 7.85 ± 0.44
61 | TGAATTTAGATATATACACACAAAAGTAAATACAAT [CACACA_site5548] | 7.79 ± 0.49
62 | AATATATACATACATACATGCATACATATATATAAC [TGCATGCA_site371] | 8.03 ± 0.64
63 | TTTAAATATATTCAATCACACACATTCGTTTTTTTT [CACACA_site7962] | 7.71 ± 0.57
64 | GAATATTAAACAAACACACACACATATATATATATA [CACACA_site3382] | 9.32 ± 0.36
65 | AGTAGTCTGGAGAAAAGTACACAGTATCTGGTAACC [XGTACX_site2035] | 7.82 ± 0.54
66 | GTATAAAAATTATATACACACAACAGAATTACATAT [CACACA_site133] | 7.9 ± 0.49
67 | GTTTATTGATTTATTTGTACTTATATATATATTTCA [XGTACX_site5098] | 8.07 ± 0.63
68 | TAAATACAGACATATACACACATATATATATATATA [CACACA_site4382] | 9.29 ± 0.43
69 | ATGTATATGTTTTGTTGTACAAGTATTTTATATCTT [XGTACX_site3588] | 7.84 ± 0.53

Row | Sequence | gcPBM binding intensity (ln)
70 | TTTCAATTTATCAGTGTGCACAAAAATAAAATAAAA | 10.88 ± 0.028
71 | AAAAAAAAAAGACACACACACAATAGTATATAAATC [CACACA_site6579] | 7.74 ± 0.72
72 | TATATATATATATTACGTTTTAAATATACTAATCTT [CACACA_negctrl_site32] | 9.2 ± 0.26
73 | TTTTTATTTTTTCAAGTGCATATTTTTGGCTTCTTA | 8.77 ± 0.31
74 | TAAATTTATATATAGGTGCGCAATTTGATAATAGTT [GTGCAC_site9783] | 9.82 ± 0.19
75 | AAAAAAAAAAAAAATACACACATATATATATATATA [CACACA_site85] | 9.53 ± 0.23
76 | CTTTTTCCTTTATATTGTACATAATTAAAGATAATA [XGTACX_site7014] | 7.95 ± 0.26
77 | TATAAATAGATATATACACACATTTTTAATGATAAA [CACACA_site7299] | 7.51 ± 0.64
78 | TTTTTTATAAATCAAATGAAAAATAAACTATTCAGA [CACACA_negctrl_site1568] | 7.36 ± 0.45
79 | ATACATATAAAAAAGTGTACATATTAAAATAAGTAT [XGTACX_site1310] | 7.83 ± 0.63
80 | TCATACAAACCTATTTGTACATAAGTATAATATATA [XGTACX_site4284] | 7.46 ± 0.28
81 | ATATCCGTTCAAAGATGTACATATATATTCTATAGA [XGTACX_site5354] | 7.8 ± 0.52
82 | AATGCAAATAATAAAACACACAAAAAAAAGAAAAAA [CACACA_site1184] | 7.66 ± 0.62
83 | TATTGCCCTGGACACACACACATATATATATATATA [CACACA_site5389] | 9.3 ± 0.2
84 | TTATGTTATATAAAAAGTACAAATTTTTTTTAATTA [XGTACX_site3435] | 7.53 ± 0.33
85 | ATTATTATTATATATGCATGTAAAATATTAAAGTAC [TGCATGCA_site914] | 8.85 ± 0.57
86 | ATAATATAAACATACACACACACATCTATATTTATA [CACACA_site7381] | 7.89 ± 0.53
87 | TATATATATATATATACACACATATACATATTGTTT [CACACA_site3499] | 9.38 ± 0.77
88 | TCCTACATATAAAAATGTACCCATTGTTTTTTTTTT [XGTACX_site7205] | 7.62 ± 0.64
89 | AATGTATATAGAAACATGCACACGTGGTTGTATATA [CACACA_site3278] | 8.19 ± 0.86
